This note sets out measurements from paper PMC11995724, “Antibiotic target discovery by integrated phenotypic and activity-based profiling of electrophilic fragments” (Cell chemical biology, 2025).

Out of some 3,200 compounds screened, about 75 (2%) showed an effect of 50% or more. The list shows a part of the results.

The test system of this test is T1, S. aureus MSSA476.
T1 construct: MSSA476
On the set-up: species or system S. aureus MSSA476 (TSB) or V. cholerae SAD30 (LB); 384-well bacterial growth screen at 25 uM, OD600 relative to DMSO control. The conditions noted are these: relative growth, OD600, TSB; 25 µM; inhibitor.
Regarding `N#CC(=Cc1ccc(-c2ccccc2)cc1)C(=O)NCc1ccccc1` [8-C06, N-benzyl-3-{[1,1'-biphenyl]-4-yl}-2-cyanoprop-2-enamide], the “% of control remaining” value turned out to be 141.743%.
With `Cc1cc(CN(C(=O)CCl)c2ccc(F)cc2)nn1C` [5-E14, 2-chloro-N-[(1,5-dimethyl-1H-pyrazol-3-yl)methyl]-N-(4-fluorophenyl)acetamide] the figure was 100.182%.
`CC(Cl)C(=O)NCC1CCCN(c2nccn3cnnc23)C1` (centres unmarked) [7-M05, 2-chloro-N-[(1-{[1,2,4]triazolo[4,3-a]pyrazin-8-yl}piperidin-3-yl)methyl]propanamide]: the “% of control remaining” value stood at 116.484%.
With `COc1ccc(S(=O)(=O)N2CCOCC2)cc1NC(=O)CCl` [4-O04, 2-chloro-N-[2-methoxy-5-(morpholine-4-sulfonyl)phenyl]acetamide], the “% of control remaining” value worked out at 102.906%.
To `C=CC(=O)N1CCN(Cc2ncon2)CC1` [3-I16, 1-{4-[(1,2,4-oxadiazol-3-yl)methyl]piperazin-1-yl}prop-2-en-1-one] belongs 96.8219%.
On to `C=CC(=O)Nc1cn(CC(F)(F)F)nc1C` [3-D06, N-[3-methyl-1-(2,2,2-trifluoroethyl)-1H-pyrazol-4-yl]prop-2-enamide], for which the “% of control remaining” value is 91.5977%.
As for `CC(Cl)C(=O)N(C)C(C)c1cccc(NC(=O)c2ccccc2)c1` (centres unmarked) [6-J14, N-{3-[1-(2-chloro-N-methylpropanamido)ethyl]phenyl}benzamide], the “% of control remaining” value came out at 94.5854%.
For `C=CC(=O)N(C)CC(=O)N1CCc2cc(OC)c(OC)cc2C1C` (centres unmarked) [3-C04, N-[2-(6,7-dimethoxy-1-methyl-1,2,3,4-tetrahydroisoquinolin-2-yl)-2-oxoethyl]-N-methylprop-2-enamide], the “% of control remaining” value is on record as 96.8219%.
As for `C=CC(=O)N1CCCCC1CNC(C)=O` (centres unmarked) [2-M07, N-{[1-(prop-2-enoyl)piperidin-2-yl]methyl}acetamide], the “% of control remaining” value was determined as 100.261%.
`CN(C)CCN1C(=O)C=CC1=O` [10-G11, 1-[2-(dimethylamino)ethyl]-2,5-dihydro-1H-pyrrole-2,5-dione]: the “% of control remaining” value is given as 95%.
With `C=CC(=O)N1CCC(C(=O)Nc2nncn2C)(c2ccccc2)CC1` [3-O12, N-(4-methyl-4H-1,2,4-triazol-3-yl)-4-phenyl-1-(prop-2-enoyl)piperidine-4-carboxamide], the “% of control remaining” value is reported as 89.5081%.
To `O=C(CCl)NC1CCN(C(=O)CCc2ccccc2)CC1` [6-N08, 2-chloro-N-[1-(3-phenylpropanoyl)piperidin-4-yl]acetamide] belongs 108.585%; to `N#CC(=Cc1ccccc1OC(F)F)C(=O)Nc1nccs1` [9-K19, 2-cyano-3-[2-(difluoromethoxy)phenyl]-N-(1,3-thiazol-2-yl)prop-2-enamide], 96.779%.
To `CC(NC(=O)CCl)C(=O)N1CCS(=O)(=O)CC1` (centres unmarked) [5-K14, 2-chloro-N-[1-(1,1-dioxo-1lambda6-thiomorpholin-4-yl)-1-oxopropan-2-yl]acetamide] belongs 123.133%; to `N#CC(=Cc1ccc([N+](=O)[O-])o1)C(=O)NCc1ccco1` [8-I17, 2-cyano-N-[(furan-2-yl)methyl]-3-(5-nitrofuran-2-yl)prop-2-enamide], -0.6639%.
To `N#CC(=Cc1cccc([N+](=O)[O-])c1)C(=O)NCc1ccccc1` [8-B22, N-benzyl-2-cyano-3-(3-nitrophenyl)prop-2-enamide] belongs 83.3195%; to `C=CCNC(=O)C(C#N)=Cc1cc(F)ccc1F` [9-H07, 2-cyano-3-(2,5-difluorophenyl)-N-(prop-2-en-1-yl)prop-2-enamide], 106.367%.
Regarding `COc1cc(C(C)NC(=O)CCl)sn1` (centres unmarked) [7-H22, 2-chloro-N-[1-(3-methoxy-1,2-thiazol-5-yl)ethyl]acetamide], the “% of control remaining” value was determined as 100.785%.
For `CC(Cl)C(=O)NC1CCN(Cc2cscn2)CC1` (centres unmarked) [7-D07, 2-chloro-N-{1-[(1,3-thiazol-4-yl)methyl]piperidin-4-yl}propanamide], the “% of control remaining” value is 107.378%.
For the compound `CC(Cl)C(=O)NC1(C(=O)N(C)C)CC(F)(F)C1` (centres unmarked) [7-K20, 1-(2-chloropropanamido)-3,3-difluoro-N,N-dimethylcyclobutane-1-carboxamide], the “% of control remaining” value is listed as 98.5871%.
Consider `CCC1SC(=C(C#N)C(N)=O)N(c2ccc(C)cc2)C1=O` (centres unmarked) [8-J15, 2-cyano-2-[5-ethyl-3-(4-methylphenyl)-4-oxo-1,3-thiazolidin-2-ylidene]acetamide], for which the “% of control remaining” value turned out to be 108.88%.
With `COc1ccc([C@H]2C[C@H](NC(=O)C(C)Cl)C2)cc1F` (some centres unmarked) [6-F17, 2-chloro-N-[(1r,3r)-3-(3-fluoro-4-methoxyphenyl)cyclobutyl]propanamide] the figure was 93.9024%.
On to `Cc1cc(C=C(C#N)C(=O)Nc2ccccc2)c(C)n1C1CC1` [8-E14, 2-cyano-3-(1-cyclopropyl-2,5-dimethyl-1H-pyrrol-3-yl)-N-phenylprop-2-enamide], for which the “% of control remaining” value is 129.793%.
`CC1(C)Cc2cc(C=C(C#N)C(=O)Nc3ccccc3F)ccc2O1` [8-G20, 2-cyano-3-(2,2-dimethyl-2,3-dihydro-1-benzofuran-5-yl)-N-(2-fluorophenyl)prop-2-enamide]: the “% of control remaining” value is reported as 91.6183%.
As for `N#CC(=Cc1cccnc1)C(=O)NCc1ccccc1` [9-I14, N-benzyl-2-cyano-3-(pyridin-3-yl)prop-2-enamide], the “% of control remaining” value is reported as 112.959%.
`Cc1cc(C)c(CCNC(=O)CCl)c(C)c1` [6-K06, 2-chloro-N-[2-(2,4,6-trimethylphenyl)ethyl]acetamide]: the “% of control remaining” value came out at 77.1707%.
As for `CN(C(=O)CCl)c1c(N)n(Cc2ccccc2)c(=O)[nH]c1=O` [4-E06, N-(6-amino-1-benzyl-2,4-dioxo-1,2,3,4-tetrahydropyrimidin-5-yl)-2-chloro-N-methylacetamide], the “% of control remaining” value stood at 94.9023%.
In the case of `C=CC(=O)N(Cc1cc(F)cc(Cl)c1)C(C)C1CCOCC1` (centres unmarked) [1-F13, N-[(3-chloro-5-fluorophenyl)methyl]-N-[1-(oxan-4-yl)ethyl]prop-2-enamide], the “% of control remaining” value is given as 112.879%.
For the compound `Cc1c(C#N)c(NC(=O)CCl)n(Cc2ccc(F)cc2)c1C` [4-O21, 2-chloro-N-{3-cyano-1-[(4-fluorophenyl)methyl]-4,5-dimethyl-1H-pyrrol-2-yl}acetamide], the “% of control remaining” value was 115.484%.
With `CCOc1ccc(C(=O)CCl)cc1` [10-F12, 2-chloro-1-(4-ethoxyphenyl)ethan-1-one] the figure was 0.3125%.
In the case of `C=CC(=O)N1CCOCC2(CC2)C1` [2-M15, 1-{5-oxa-8-azaspiro[2.6]nonan-8-yl}prop-2-en-1-one], the “% of control remaining” value is on record as 110.009%.
To `CCN(C(=O)CCl)c1cccc2ccccc12` [5-B08, 2-chloro-N-ethyl-N-(naphthalen-1-yl)acetamide] belongs 124.226%.
To `CC(Cl)C(=O)Nc1cc2c(cc1Cl)C(=O)c1ccccc1C2=O` (centres unmarked) [4-I12, 2-chloro-N-(3-chloro-9,10-dioxo-9,10-dihydroanthracen-2-yl)propanamide] belongs 121.963%.
With `C=CC(=O)N(C)CC(=O)N1CCc2ccc(S(C)(=O)=O)cc2CC1` [2-N08, N-[2-(7-methanesulfonyl-2,3,4,5-tetrahydro-1H-3-benzazepin-3-yl)-2-oxoethyl]-N-methylprop-2-enamide] the figure was 106.527%.
As for `CCN(CC)S(=O)(=O)c1cc(NC(=O)C(C)Cl)ccc1C` (centres unmarked) [4-P09, 2-chloro-N-[3-(diethylsulfamoyl)-4-methylphenyl]propanamide], the “% of control remaining” value is on record as 98.7137%.
As to `COc1ccc(C=C(C#N)C(=O)Nc2ccccc2OC)cc1` [8-G09, 2-cyano-N-(2-methoxyphenyl)-3-(4-methoxyphenyl)prop-2-enamide], the “% of control remaining” value is recorded as 132.448%.
With `CC(Cl)C(=O)N1CCN(CC(F)(F)C(F)F)CC1` (centres unmarked) [7-J07, 2-chloro-1-[4-(2,2,3,3-tetrafluoropropyl)piperazin-1-yl]propan-1-one], the “% of control remaining” value worked out at 107.064%.
Turning to `N#CC(=Cc1c[nH]c2ccccc12)C(=O)Nc1ccccn1` [9-B10, 2-cyano-3-(1H-indol-3-yl)-N-(pyridin-2-yl)prop-2-enamide], the “% of control remaining” value came to 79.4007%.
With `Cc1nc2n(n1)CCCC2NC(=O)CCl` (centres unmarked) [7-F12, 2-chloro-N-{2-methyl-5H,6H,7H,8H-[1,2,4]triazolo[1,5-a]pyridin-8-yl}acetamide], the “% of control remaining” value is reported as 99.843%.
Regarding `Cc1cc(CN(C(=O)CCl)C2CCCC2)c2ccccc2n1` [7-B20, 2-chloro-N-cyclopentyl-N-[(2-methylquinolin-4-yl)methyl]acetamide], the “% of control remaining” value is reported as 93.2496%.
To `N#CC(=Cc1ccc(C#N)cc1)C(=O)Nc1cccc2ccccc12` [8-O16, 2-cyano-3-(4-cyanophenyl)-N-(naphthalen-1-yl)prop-2-enamide] belongs 107.552%; to `CC(C)c1ccc(CN(C(=O)CCl)C2CC2)cc1` [6-K18, 2-chloro-N-cyclopropyl-N-{[4-(propan-2-yl)phenyl]methyl}acetamide], 91.1707%.
To `O=C(CCl)NCCOc1cccc(Cl)c1` [6-G05, 2-chloro-N-[2-(3-chlorophenoxy)ethyl]acetamide] belongs 76.4878%; to `N#CC(=Cc1csc(-c2ccsc2)n1)C(=O)NC1CC1` [9-N18, 2-cyano-N-cyclopropyl-3-[2-(thiophen-3-yl)-1,3-thiazol-4-yl]prop-2-enamide], 131.236%.
